Assay results published in the supplement of paper PMC8748497.
The other results are listed elsewhere or left out.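 How the source made its calls: active = GRHL reporter fold change of at least 2 over DMSO at 10 µM; inactive = below 2-fold.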 Most values come without repeats; read them as rough.

Tested on: HEK293 GRHL-luciferase reporter
Test: GRHL luciferase reporter activity, fold change over DMSO control; higher = stronger GRHL reporter activation
Details: 10 µM; 24 h
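Further: stable HEK293 line carrying repeated GRHL consensus sites upstream of a minimal promoter driving luciferase, luminescence read 24 h post-treatment, normalized to 0.5% DMSO vehicle wells.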

GRHL luciferase reporter activity, inactive:
CC(C)CCC[C@@H](C)[C@H]1CC[C@H]2[C@@H]3CC=C4C[C@@H](OC(=O)CCC(=O)O)CC[C@]4(C)[C@H]3CC[C@]12C 0.96
CC(=O)NCCCCCC(=O)O 1.04
CCOC(=O)c1ccc(N)cc1 1.32
C[C@]12CC[C@@H]3c4ccc(O)cc4CC[C@H]3[C@@H]1CCC2=O 1.25
CC(=O)c1c(O)cc(O)cc1O 0.937
Cl.NCCCC[C@H](N)C(=O)O 0.883
CCOC(=O)[C@H](CCc1ccccc1)N[C@@H](C)C(=O)N1[C@H](C(=O)O)C[C@@H]2CCC[C@@H]21 1.08
CN1CCC(OC(c2ccccc2)c2ccccc2)CC1 0.818
CCOC(=O)c1ccc(O)cc1 1.27
CN(C)CCOC(c1ccc(Cl)cc1)c1ccccn1 (centres undefined) 1.04
CC(=O)NS(=O)(=O)c1ccc(N)cc1 1.59
CC1(C)O[C@@H]2C[C@H]3[C@@H]4C[C@H](F)C5=CC(=O)C=C[C@]5(C)[C@H]4[C@@H](O)C[C@]3(C)[C@]2(C(=O)CO)O1 1.08
CC(=O)O[C@@H]1C[C@@]23C[C@@]24CC[C@H](O[C@@H]2OC[C@@H](O)[C@H](O)[C@H]2O)C(C)(C)[C@@H]4CC[C@H]3[C@]2(C)C[C@@H]3O[C@]4(C[C@@H](C)[C@@H]3[C@@]12C)O[C@H](O)[C@@]1(C)O[C@@H]41 0.771
CC(C)c1c(O)c(-c2cc3c(c(C(C)C)c2O)CCC2C(C)(C)CCC[C@]32C)cc2c1CCC1C(C)(C)CCC[C@]21C (some centres undefined) 1.15
